From PMC4336329 (PLoS ONE, 2015)
Among all 310,000 compounds or so, about 14,000 (4.5%) showed an effect of 50% or more. The effect is printed as a negative number. The list shows a part of the results.

Biological target: human ether-à-go-go-related gene (hERG) potassium channel (human, UniProt Q12809)
Assay: primary screen, population patch clamp on CHO cells stably expressing hERG
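Further: peak tail current of the secondary pulse compared with the same well before compound.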

Sequence of human ether-à-go-go-related gene (hERG) potassium channel (Q12809 whole entry, looked up): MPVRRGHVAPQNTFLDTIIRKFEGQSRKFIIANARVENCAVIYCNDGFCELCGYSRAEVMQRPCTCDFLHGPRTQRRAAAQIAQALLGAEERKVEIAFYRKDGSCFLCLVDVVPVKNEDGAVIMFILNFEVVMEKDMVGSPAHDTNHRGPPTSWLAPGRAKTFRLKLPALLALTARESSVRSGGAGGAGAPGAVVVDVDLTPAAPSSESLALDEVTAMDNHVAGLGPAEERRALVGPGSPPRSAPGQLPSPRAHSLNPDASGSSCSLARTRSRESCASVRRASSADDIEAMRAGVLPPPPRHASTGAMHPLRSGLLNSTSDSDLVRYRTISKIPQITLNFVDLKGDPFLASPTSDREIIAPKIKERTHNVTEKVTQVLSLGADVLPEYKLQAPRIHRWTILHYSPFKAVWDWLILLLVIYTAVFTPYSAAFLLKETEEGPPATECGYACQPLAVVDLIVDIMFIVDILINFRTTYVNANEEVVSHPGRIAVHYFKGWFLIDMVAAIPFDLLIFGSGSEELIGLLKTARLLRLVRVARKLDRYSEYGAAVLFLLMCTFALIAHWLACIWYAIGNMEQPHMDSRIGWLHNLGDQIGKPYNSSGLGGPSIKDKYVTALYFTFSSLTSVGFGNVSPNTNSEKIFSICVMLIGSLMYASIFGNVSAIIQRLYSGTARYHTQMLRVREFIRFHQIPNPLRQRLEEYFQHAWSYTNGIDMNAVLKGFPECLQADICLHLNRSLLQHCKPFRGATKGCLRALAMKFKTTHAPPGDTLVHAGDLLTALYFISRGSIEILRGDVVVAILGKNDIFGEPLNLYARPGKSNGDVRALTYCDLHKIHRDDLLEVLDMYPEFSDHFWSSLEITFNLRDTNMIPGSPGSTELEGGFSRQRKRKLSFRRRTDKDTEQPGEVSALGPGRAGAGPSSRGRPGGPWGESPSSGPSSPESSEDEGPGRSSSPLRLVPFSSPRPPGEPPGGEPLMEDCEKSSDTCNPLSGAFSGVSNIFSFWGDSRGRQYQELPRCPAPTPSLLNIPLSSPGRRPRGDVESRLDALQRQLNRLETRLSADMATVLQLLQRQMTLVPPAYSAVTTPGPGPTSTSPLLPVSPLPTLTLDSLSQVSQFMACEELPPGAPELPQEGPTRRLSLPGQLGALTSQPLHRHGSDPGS

| SMILES | hERG current change (%, negative = inhibition) at 10uM [%] |
| --- | --- |
| O=C(NCc1ccccc1)c1ccc(Br)o1 | 8.67 |
| Cc1oc2c(c1C(=O)NCCO)CCCC2 | 18.6 |
| CN(Cc1cccnc1)C(=O)Cc1ccc(NS(=O)(=O)c2cccc(C(F)(F)F)c2)cc1 | -57.6 |
| O=C(C(=O)N1CCCCC1)c1c(-c2ccccc2)[nH]c2ccccc12 | 8.46 |
| Cc1ccc(Oc2nnc(-c3ccccc3)c3ccccc23)cc1 | -2.98 |
| Nn1c(SCc2cn3cc(Cl)ccc3n2)nnc1-c1ccncc1 | -30.6 |
| COc1cc(OC)c(C2=NOC(C(=O)NCc3ccc4c(c3)OCO4)C2)cc1Cl (stereo not drawn) | -4.96 |
| Nc1cc(CN2C(=O)c3ccccc3C2=O)cc(Cl)c1O | -5.61 |
| COCCNC(=O)COC(=O)C1=Cc2ccccc2OC1 | 25.1 |
| CC(C)OCCCn1c(=O)c2ccccc2n2c(CCC(=O)N3CCN(c4ccccn4)CC3)nnc12 | -71.1 |
| C=CCn1cc(/C=N\NC(=O)c2cc3c(ccc4ccccc43)o2)c2ccccc21 | -4.85 |
| CN(C)S(=O)(=O)c1ccc(C(=O)OCC(=O)Nc2ccccc2OC(F)F)cc1 | -5.82 |
| O=C(COc1ccc(Cl)cc1)NCc1nnc(SCC(=O)NCCc2ccccc2)o1 | -8.89 |
| CCCCn1c(=O)[nH]c(=O)c2c1nc(-c1ccncc1)n2CCOC | -0.235 |
| N#Cc1nc(COc2ccc(Cl)cc2)oc1N1CCN(Cc2ccccc2)CC1 | -1.08 |
| CCCN(CC(=O)Nc1ccccc1C)C(=O)c1ccc2c(c1)OCO2 | 9.43 |
| COc1ccccc1C(=O)NC(CCSC)C(=O)NCCCn1nc(C)cc1C (stereo not drawn) | -0.863 |
| CCOCCCNC(=O)c1ccc(Cn2c(=O)[nH]c3ccsc3c2=O)cc1 | 12.4 |
| COc1cc(Cl)cc(C(c2c(C(=O)O)[nH]c3ccccc23)c2c(C(=O)O)[nH]c3ccccc23)c1O | 13.4 |
| C[C@H]1CCC(=O)N([C@H](CN=[N+]=[N-])Cc2ccccc2)CC1 | 0.858 |
| C=CCNC(=O)N[C@@H](CCSC)C(=O)OC | -3.95 |
| Cc1sc2nc3n(c(=O)c2c1C)NC(=O)CC3 | 10.2 |
| Cc1ccc(C2CC(=O)N3CN(c4ccc(Br)cc4)CSC3=C2C#N)o1 (stereo not drawn) | 11.1 |

| SMILES | hERG current change (%, negative = inhibition) at 10uM [%] |
| --- | --- |
| O=C(CSc1nnc(-c2ccco2)o1)c1ccc([N+](=O)[O-])cc1 | -35.7 |
| CCN(CC)c1ccc(NC(=O)COc2ccc(C)cc2)cc1 | -15.3 |
| CCn1ncc(Br)c1C(=O)Nc1ccccc1C(=O)OC | -4.3 |
| COc1cc(OC)nc(Oc2ccccc2C(=O)Oc2ccc(Cl)cc2)n1 | -21.6 |
| c1cc2c(cc1Oc1nc(N3CCOCC3)nc(N3CCOCC3)n1)OCO2 | 3.77 |
| O=C(COc1ccccc1)N/N=C/c1ccc([N+](=O)[O-])o1 | -17.8 |
| O=C(Nc1ccccc1F)c1ccc(Br)o1 | 3.57 |
| Cc1ccc(S(=O)(=O)NC(=O)Nc2cc(C(C)(C)C)on2)cc1 | 17.5 |
| O=C(Nc1nonc1-c1ccc(Cl)cc1)c1ccccc1 | 10.3 |
| O=c1[nH]c(Nc2ccccc2Cl)cc2ccccc12 | 10.9 |
| O=C(NNC1=C(C(=O)C(F)(F)F)CCC1)c1ccncc1 | 23.7 |
| CN(C)C(=O)CCCCCCCCC(=O)N(C)C | 19.2 |
| COc1ccc(/C(C)=N\NS(C)(=O)=O)c(OC)c1 | 17.9 |
| Cc1cccc2cc(C(c3nnnn3C(C)(C)C)N3CCN(C(=O)c4ccco4)CC3)c(=O)[nH]c12 (stereo not drawn) | -16.2 |
| O=C(CSc1nnc(-c2ccccn2)n1-c1ccc(Cl)cc1)Nc1ccc2c(c1)OCO2 | 7.63 |
| Cc1ccc(-c2ocnc2C(=O)Nc2ccccc2NC(=O)c2ccccn2)cc1 | 14.3 |
| CCc1ccc(-n2c(=O)c3ccccc3n(CC(=O)NCc3ccco3)c2=O)cc1 | 20.6 |
| CCOc1ccc(N(CC(=O)NC2CCCCC2)C(=O)CSc2nnc(COc3ccccc3)o2)cc1 | -4.72 |
| CCNC(=O)COc1cccc2ccccc12 | -13.9 |
| O=C(N/N=C\c1ccc[nH]1)C1COc2ccccc2O1 (stereo not drawn) | -9.26 |
| Cc1ccc(C)c(Cc2c(C)nc3c(C(=O)N4CCOCC4)cnn3c2C)c1 | -7.47 |
| CC1=NOC(=O)/C1=C/c1ccc(N(C)C)cc1 | -1.58 |
| Cc1cc(-c2nnc3n2N=C(C(C)(C)C)CS3)n[nH]1 | 7.77 |

| SMILES | hERG current change (%, negative = inhibition) at 10uM [%] |
| --- | --- |
| Cc1cc(C)c2c(c1)[C@@H]1C=CC[C@@H]1[C@H](c1ccc(S(=O)(=O)N3CCOCC3)cc1)N2 | -5.61 |
| COc1ccc(C(=O)Oc2cccc3cccnc23)cc1S(=O)(=O)N1CCOCC1 | -31.9 |
| O=C(c1ccc(O)cc1)c1ccc(C(=O)c2ccc(O)cc2)cc1 | -4.4 |
| CC(NC(=S)NCc1ccccc1)C12CC3CC(CC(C3)C1)C2 (stereo not drawn) | 20.4 |
| CCOc1cc(C(C#N)N2CCCCC2)ccc1OC (stereo not drawn) | 9.09 |
| CN(C(=O)c1ccccc1Cl)c1ccccc1 | -4.32 |
| CCN(C(=O)COC(=O)CNC(=O)c1ccc2ccccc2c1)C1CCS(=O)(=O)C1 (stereo not drawn) | -8.27 |
| COc1ccccc1CC(=O)Nc1ccccc1C(=O)O | 16.7 |
| CC(C)N1CCc2c(sc(NC(=O)CCc3ccccc3)c2C(N)=O)C1.Cl | -57.2 |
| CC1CCCCC1NC(=O)c1cn(C)c2ccc(S(=O)(=O)N3CCOCC3)cc2c1=O (stereo not drawn) | -19.3 |
| CCN(c1ccccc1)S(=O)(=O)c1ccc2c(c1)N(C(C)=O)CCS2 | -11.6 |
| CC(=O)Nc1ccc(N/C=C/C(=O)c2ccccc2)cc1 | 9.1 |
| Cc1ccc(C)c(NC(=O)CS(=O)(=O)c2cccc3nsnc23)c1 | -12.8 |
| CCOC(=O)N1CCN(CC(=O)Nc2ccc(F)c(F)c2F)CC1 | 7.7 |
| CC(C)(C)c1ccc(C(=O)c2cn[nH]c2-c2ccccc2O)cc1 | 9.39 |
| O=C(O)Cn1c(CCS(=O)(=O)c2ccc(Br)cc2)nc2ccccc21 | 12 |
| CCOC(=O)N1CCN(c2c(NCCCN(CC)CC)c(=O)c2=O)CC1 | 1.23 |
| COc1ccc(C(OCC(O)CNC(C)c2ccccc2)c2ccc(OC)cc2)cc1 (stereo not drawn) | -52.4 |
| CCc1ccc(S(=O)(=O)Nc2ccc(C)c(NS(C)(=O)=O)c2)cc1 | 0.781 |
| O=c1nc(Nc2ccc(OCc3ccccc3)cc2)sc2ncccc12 | 12.6 |
| O=C(N/N=C/c1ccccn1)c1ccccc1 | 2.75 |
| Cn1c(O)c(C=Nc2ccc(F)cc2)c(=O)[nH]c1=O | 10.2 |
| CSc1ccc(C2Nc3cccc4cccc(c34)N2)cc1 | 11.2 |

| SMILES | hERG current change (%, negative = inhibition) at 10uM [%] |
| --- | --- |
| CSc1nsc(SCC(=O)Nc2cccc(C(C)=O)c2)n1 | 11.7 |
| O=C1CN(c2ccccc2)C(=O)N1 | 16 |
| Cc1ccc(S(=O)(=O)CCc2nc3ccccc3[nH]2)cc1 | -17.6 |
| CN(C(=O)c1cc2n(n1)C(C(F)(F)F)CC(c1ccco1)N2)c1ccccc1 (stereo not drawn) | 0.954 |
| O=C(Cn1nnc(-c2ccccc2)n1)OCc1ccccc1 | 15.6 |
| COc1ccccc1C(=O)N/C(=N/c1nc(C)cc(C)n1)Nc1ccccc1 | -1.09 |
| CC(=O)Nc1ccc(S(=O)(=O)NC2(C(F)(F)F)NC(=O)N(c3ccc(Cl)cc3)C2=O)cc1 (stereo not drawn) | 17.5 |
| CCC1CCCCN1C(=O)c1sc2ncnc(N(CC)CC)c2c1C (stereo not drawn) | -16.7 |
| O=C(COC(=O)c1cccc([N+](=O)[O-])c1)NCc1cccs1 | 10 |
| O=C(Nn1c(-c2ccncc2)nc2ccccc2c1=O)c1ccccc1Br | 5.54 |
| Cc1nc2ncnn2c(C)c1Cc1ccccc1Cl | -3.23 |
| CC(=O)Nc1ccccc1OCC(=O)NC(C)c1ccc(F)cc1 (stereo not drawn) | -0.0484 |
| CC(C)COC(=O)C1C2C=CC3(CN(C(C)c4ccc(Br)cc4)C(=O)C13)O2 (stereo not drawn) | -21.4 |
| CC1(C)OC2OC(C(=O)N/N=C/c3ccccc3F)C3OC(C)(C)OC3C2O1 (stereo not drawn) | 20.2 |
| Cn1c(NC(=O)c2ccc(S(=O)(=O)N3CCCCC3)cc2)cc(=O)n(C)c1=O | -2.39 |
| Cc1ccc(/C=N/NC(=O)NN(C)c2ncc(C(F)(F)F)cc2Cl)cc1 | -3.09 |
| CCCC1Cc2nc(N3CCCCC3)c(C#N)cc2CO1 (stereo not drawn) | -27.6 |
| O=[N+]([O-])C(=C1Nc2ccccc2N1)/C(Cl)=C(/Cl)Br | 19.8 |
| COc1ccc(CC(=O)N/N=C(\C)c2cccs2)cc1 | 12.7 |
| Cc1cc(C)cc(SCc2noc(C(=O)NCCC(C)C)c2C(=O)NCCC(C)C)c1 | 4.93 |
| COC(=O)C1=CN(Cc2cccs2)C=C(C(=O)OC)C1c1cccc(OC)c1OC | -4.95 |
